About 14,000 (4.5%) of roughly 310,000 compounds showed an effect of 50% or more. The effect is printed as a negative number. The list shows a part of the results.

Data on 44 compounds can be found in paper PMC4336329 (PLoS ONE, 2015).
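Also: peak tail current of the secondary pulse compared with the same well before compound.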

Chain of human ether-à-go-go-related gene (hERG) potassium channel (Q12809 whole entry, looked up): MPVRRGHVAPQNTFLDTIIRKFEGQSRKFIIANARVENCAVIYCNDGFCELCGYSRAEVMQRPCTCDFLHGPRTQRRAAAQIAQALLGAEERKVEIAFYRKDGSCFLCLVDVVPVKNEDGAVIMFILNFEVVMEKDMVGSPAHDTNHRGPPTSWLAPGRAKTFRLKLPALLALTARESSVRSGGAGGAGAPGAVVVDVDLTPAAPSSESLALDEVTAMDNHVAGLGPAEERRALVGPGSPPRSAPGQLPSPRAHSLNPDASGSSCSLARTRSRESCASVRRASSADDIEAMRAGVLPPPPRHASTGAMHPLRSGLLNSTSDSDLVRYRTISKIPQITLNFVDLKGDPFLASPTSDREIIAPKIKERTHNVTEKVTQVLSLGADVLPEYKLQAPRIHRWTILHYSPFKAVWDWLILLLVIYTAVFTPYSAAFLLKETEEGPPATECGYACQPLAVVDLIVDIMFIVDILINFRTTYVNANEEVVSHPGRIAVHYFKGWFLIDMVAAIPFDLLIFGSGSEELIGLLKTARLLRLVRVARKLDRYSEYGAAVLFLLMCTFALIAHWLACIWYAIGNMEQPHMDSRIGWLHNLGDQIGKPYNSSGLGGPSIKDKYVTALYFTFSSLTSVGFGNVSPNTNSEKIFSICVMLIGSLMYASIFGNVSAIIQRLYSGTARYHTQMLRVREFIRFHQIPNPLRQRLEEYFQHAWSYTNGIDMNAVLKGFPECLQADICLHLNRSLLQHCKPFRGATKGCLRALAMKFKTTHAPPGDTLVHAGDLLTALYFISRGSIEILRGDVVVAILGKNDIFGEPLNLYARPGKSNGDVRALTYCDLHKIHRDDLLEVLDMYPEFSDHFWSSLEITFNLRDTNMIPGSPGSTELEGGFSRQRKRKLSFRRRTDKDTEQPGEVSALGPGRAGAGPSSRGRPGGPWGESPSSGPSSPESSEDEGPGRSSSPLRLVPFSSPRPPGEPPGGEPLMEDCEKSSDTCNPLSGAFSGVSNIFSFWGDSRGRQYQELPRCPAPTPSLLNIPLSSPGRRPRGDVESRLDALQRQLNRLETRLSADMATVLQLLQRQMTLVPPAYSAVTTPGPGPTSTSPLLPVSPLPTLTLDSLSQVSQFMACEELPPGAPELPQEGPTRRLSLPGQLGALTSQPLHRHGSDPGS

The assay addresses human ether-à-go-go-related gene (hERG) potassium channel (human, UniProt Q12809). The experiment in a line: primary screen, population patch clamp on CHO cells stably expressing hERG.
As to `CCOC(=O)N1CCN(C(=O)c2cc3c(s2)-c2c(C)cccc2OC3)CC1`, the “hERG current change (%, negative = inhibition) at 10uM” value was -15.5%.

Consider `CCn1c(=O)n(CC)c2cc(N)ccc21.Cl`, for which the “hERG current change (%, negative = inhibition) at 10uM” value is reported as 36%. Take `Cc1cccc(NC(=O)c2cccc(C(F)(F)F)c2)c1`: the “hERG current change (%, negative = inhibition) at 10uM” value is listed as -1.53%.

As to `Cc1cc(C)cc(N2C(=O)CC(n3ccnc3)C2=O)c1` (centres unmarked), the “hERG current change (%, negative = inhibition) at 10uM” value came out at 5.42%.

In the case of `CCn1c(C)nc2cc(C(=O)N/N=C/c3ccc(N4CCOCC4)cc3)ccc21`, the “hERG current change (%, negative = inhibition) at 10uM” value is reported as 7.11%. In the case of `CCCCC(=O)Nc1cc(OCC)c(NC(=S)NC)cc1OCC`, the “hERG current change (%, negative = inhibition) at 10uM” value is listed as -3.83%. As for `Cc1ccccc1C(=O)N1CCC(C(=O)N(C)CCOc2ccccc2)CC1`, the figure is 9.06%; as for `CCOCCCNC(=O)C(c1ccc(C)cc1)N(Cc1ccc2c(c1)OCO2)C(=O)c1ccccn1` (centres unmarked), -17.1%. In the case of `CC(C)O.CCc1nnc(NS(=O)(=O)c2ccc(NC(=O)C(c3ccccc3)c3ccccc3)cc2)s1`, the “hERG current change (%, negative = inhibition) at 10uM” value amounted to 2.36%. As to `Clc1ccc(Cn2nnc(-c3ccccc3)n2)cc1`, the “hERG current change (%, negative = inhibition) at 10uM” value was 12.8%.

As to `O=c1c2cn[nH]c2[nH]c(=S)n1-c1cccc2ccccc12`, the “hERG current change (%, negative = inhibition) at 10uM” value was found to be 2.95%. On to `CC(C)(C)c1ccc(C(=O)COC(=O)CN2C(=O)NC3(CCCC3)C2=O)cc1`, for which the “hERG current change (%, negative = inhibition) at 10uM” value came to 3.92%. For `NNC(=O)c1ccc(N2CCc3ccccc32)c([N+](=O)[O-])c1`, the “hERG current change (%, negative = inhibition) at 10uM” value is reported as -3.16%. Take `N#C/C(=C\c1ccccc1)C(=O)NCc1ccc(F)cc1`: the “hERG current change (%, negative = inhibition) at 10uM” value is given as 6.17%.

Turning to `CNC(=O)C1=C(C)Nc2nc3ccccc3n2C1c1ccc(F)cc1` (centres unmarked), the “hERG current change (%, negative = inhibition) at 10uM” value is listed as -6.47%. As for `COc1ccc(N(C(=O)CNC(=O)c2ccco2)C(C(=O)NC2CCCCC2)c2cccnc2)cc1` (centres unmarked), the figure is 1.4%; as for `Br.CCOc1ccc(C2=CS/C(=C(\C#N)c3nnc4n3CCCCC4)N2CC)cc1`, -47.3%; as for `COc1cccc(C(=O)NC2CCCc3c2cnn3-c2cc(C)cc(C)c2)c1` (centres unmarked), 6.79%. Turning to `Cc1ccc(-c2nc3cc(N)ccc3o2)cc1`, the “hERG current change (%, negative = inhibition) at 10uM” value was 16.3%. As for `Cc1ccc(C(=O)NC2CCN(S(=O)(=O)c3ccc(C)cc3)CC2)cc1`, the figure is 19.2%. For the compound `O=C(COc1ccccc1)NC(=S)Nc1cccc([N+](=O)[O-])c1`, the “hERG current change (%, negative = inhibition) at 10uM” value is given as 15.3%. For `O=C(O)c1cc(-c2ccccc2)on1`, the “hERG current change (%, negative = inhibition) at 10uM” value was found to be 13.3%. Consider `CC(/C=C/C1(O)C(C)CC(O)CC1(C)C)OC1OC(CO)C(O)C(O)C1O` (centres unmarked), for which the “hERG current change (%, negative = inhibition) at 10uM” value is 9.31%. Take `O=C(Nc1ccc(N2CCOCC2)cc1)C1CCCCN1S(=O)(=O)c1ccccc1` (centres unmarked): the “hERG current change (%, negative = inhibition) at 10uM” value is recorded as -0.469%. The result for `Cc1ccsc1CN(C)CC(=O)NCC(=O)Nc1ccc(F)cc1` reads -11.3%; that for `CCN(CC)CCn1c2c(c(SCC(=O)Nc3cc(C)on3)nc1=O)CCCC2`, -25%; that for `COc1ccccc1NC(=O)N1CCC(C(=O)c2ccc(Cl)cc2)CC1`, -72.7%. The result for `O=C(c1cccc(F)c1)N1CCCC(C(=O)N2CCCC2)C1` (centres unmarked) reads 19.8%.

For `CCOC(=O)C1(Cc2ccccc2C(F)(F)F)CCN(C(=O)c2cc(C(C)=O)n[nH]2)CC1`, the “hERG current change (%, negative = inhibition) at 10uM” value is given as -57.2%. For the compound `CN1C(=O)N(C)C(=O)C2(Cc3cc([N+](=O)[O-])ccc3N(C)C2c2ccccc2)C1=O` (centres unmarked), the “hERG current change (%, negative = inhibition) at 10uM” value is on record as -17.6%. Consider `Nn1c(SCC(=O)Nc2nccs2)nnc1C1CC1`, for which the “hERG current change (%, negative = inhibition) at 10uM” value came out at 6.89%. As for `Cc1cc(=O)oc2cc(OCC(=O)N3CCCc4ccccc43)ccc12`, the figure is -0.569%; as for `Cc1ccc(NC(=O)COC(=O)[C@@H]2CCCN2C(=O)c2cccs2)cc1S(=O)(=O)N(C)C`, -23.8%; as for `O=C(Nc1cccs1)Nc1ccccc1Br`, -1.78%.

In the case of `CC(CN)(NS(=O)(=O)c1ccccc1)c1ccccc1` (centres unmarked), the “hERG current change (%, negative = inhibition) at 10uM” value is 16.6%. On to `CC(=O)c1ccccc1OC(=O)CCN1C(=O)C2C3C=CC(C4CC34)C2C1=O` (centres unmarked), for which the “hERG current change (%, negative = inhibition) at 10uM” value is -24.4%. The result for `FC(F)(F)c1cnc(N2CCSCC2)c(Cl)c1` reads 8.66%; that for `CNC(=O)c1ccc2snnc2c1`, -5.72%. With `Cl.c1ccc(Cn2nnnc2C(c2cccs2)N2CCCCCC2)cc1` (centres unmarked), the “hERG current change (%, negative = inhibition) at 10uM” value was 6.58%. Consider `O=C(c1ccc(C(F)(F)F)cc1)C1CCCN(Cc2cccn2-c2ncccn2)C1` (centres unmarked), for which the “hERG current change (%, negative = inhibition) at 10uM” value is recorded as -80.3%. For `O=C(NCc1ccco1)c1ccc(Br)s1`, the “hERG current change (%, negative = inhibition) at 10uM” value was -7.38%. As to `COc1ccc2cnn(-c3ccc(C)cc3)c(=O)c2c1OC`, the “hERG current change (%, negative = inhibition) at 10uM” value is listed as -0.33%.

For `COc1cc([N+](=O)[O-])ccc1NC(=O)CCCOc1ccccc1`, the “hERG current change (%, negative = inhibition) at 10uM” value is reported as -23.8%. With `COc1ccccc1S(=O)(=O)CC(O)COc1ccc(C#N)cc1` (centres unmarked), the “hERG current change (%, negative = inhibition) at 10uM” value was 8.16%.
